# In the supplement of paper PMC8728848:
# This is one part of the list.
# Assays:
# Experiment in all cases: glycan array binding signal (z-score within array); higher = stronger binding
# Conditions in all cases: glycan notation: IUPAC condensed, linker removed
# [1] = molecular target: GlcNAc(b1-4)GlcNAc(b1-4)GlcNAc(b1-4)GlcNAc(b1-4)GlcNAc(b1-4)GlcNAc
# How it was run: (§1)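 The binding signal is a Z-score computed within each array and averaged over linkers. Arrays of the same protein sequence at different concentrations or buffers were also averaged together. Data originate from 3228 arrays in the Consortium for Functional Glycomics database, kept only where the protein sequence was available.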
# [2] = molecular target: GlcNAc(b1-4)[GlcNAc(b1-6)]GalNAc
# How it was run: as §1
# [3] = molecular target: GlcNAc(b1-6)Gal(b1-4)GlcNAc
# How it was run: as §1
# GlcNAc(b1-6)GalNAc = molecular target: GlcNAc(b1-6)GalNAc
# How it was run: as §1
# [4] = molecular target: GlcNAc6S(b1-3)Gal(b1-4)GlcNAc
# How it was run: as §1
# Kdn(a2-3)Gal(b1-3)GalNAc = molecular target: Kdn(a2-3)Gal(b1-3)GalNAc
# How it was run: as §1
# Kdn(a2-3)Gal(b1-3)GlcNAc = molecular target: Kdn(a2-3)Gal(b1-3)GlcNAc
# How it was run: as §1
# Kdn(a2-3)Gal(b1-4)Glc = molecular target: Kdn(a2-3)Gal(b1-4)Glc
# How it was run: as §1
# Kdn(a2-3)Gal(b1-4)GlcNAc = molecular target: Kdn(a2-3)Gal(b1-4)GlcNAc
# How it was run: as §1
# [5] = molecular target: Kdn(a2-3)Gal(b1-4)[Fuc(a1-3)]GlcNAc
# How it was run: as §1
# Kdn(a2-6)Gal(b1-4)GlcNAc = molecular target: Kdn(a2-6)Gal(b1-4)GlcNAc
# How it was run: as §1
# [6] = molecular target: Man(a1-2)Man(a1-2)Man(a1-3)Man
# How it was run: as §1
# [7] = molecular target: Man(a1-2)Man(a1-2)Man(a1-6)[Man(a1-3)]Man
# How it was run: as §1
# Man(a1-2)Man(a1-3)Man = molecular target: Man(a1-2)Man(a1-3)Man
# How it was run: as §1
# [8] = molecular target: Man(a1-2)Man(a1-3)[Man(a1-2)Man(a1-6)]Man
# How it was run: as §1
# [9] = molecular target: Man(a1-2)Man(a1-3)[Man(a1-2)Man(a1-6)]Man(a1-6)[Man(a1-2)Man(a1-2)Man(a1-3)]Man
# How it was run: as §1
# [10] = molecular target: Man(a1-2)Man(a1-3)[Man(a1-2)Man(a1-6)]Man(a1-6)[Man(a1-2)Man(a1-2)Man(a1-3)]Man(b1-4)GlcNAc(b1-4)GlcNAc
# How it was run: as §1
# [11] = molecular target: Man(a1-2)Man(a1-3)[Man(a1-6)]Man(a1-6)[Man(a1-2)Man(a1-3)]Man(b1-4)GlcNAc(b1-4)GlcNAc
# How it was run: as §1
# [12] = molecular target: Man(a1-2)Man(a1-6)[Man(a1-3)]Man(a1-6)[Man(a1-2)Man(a1-2)Man(a1-3)]Man
# How it was run: as §1
# [13] = molecular target: Man(a1-2)Man(a1-6)[Man(a1-3)]Man(a1-6)[Man(a1-2)Man(a1-2)Man(a1-3)]Man(b1-4)GlcNAc(b1-4)GlcNAc
# How it was run: as §1
# Man(a1-3)[Man(a1-6)]Man = molecular target: Man(a1-3)[Man(a1-6)]Man
# How it was run: as §1
# [14] = molecular target: Man(a1-3)[Man(a1-6)]Man(a1-6)[Man(a1-2)Man(a1-3)]Man(b1-4)GlcNAc(b1-4)GlcNAc
# How it was run: as §1
# [15] = molecular target: Man(a1-3)[Man(a1-6)]Man(a1-6)[Man(a1-3)]Man
# How it was run: as §1
# [16] = molecular target: Man(a1-3)[Man(a1-6)]Man(a1-6)[Man(a1-3)]Man(b1-4)GlcNAc(b1-4)GlcNAc
# How it was run: as §1
# [17] = molecular target: Man(a1-3)[Man(a1-6)]Man(b1-4)GlcNAc(b1-4)GlcNAc
# How it was run: as §1
# [18] = molecular target: Man(a1-3)[Man(a1-6)]Man(b1-4)GlcNAc(b1-4)[Fuc(a1-6)]GlcNAc
# How it was run: as §1
# Man(a1-6)Man = molecular target: Man(a1-6)Man
# How it was run: as §1
# Man(b1-4)GlcNAc = molecular target: Man(b1-4)GlcNAc
# How it was run: as §1
# MurNAc(b1-4)GlcNAc = molecular target: MurNAc(b1-4)GlcNAc
# How it was run: as §1
# Neu5Ac(a2-3)Gal = molecular target: Neu5Ac(a2-3)Gal
# How it was run: as §1
# [19] = molecular target: Neu5Ac(a2-3)Gal(b1-3)GalNAc
# How it was run: as §1
# [20] = molecular target: Neu5Ac(a2-3)Gal(b1-3)GalNAc(b1-3)Gal(a1-4)Gal(b1-4)Glc
# How it was run: as §1
# [21] = molecular target: Neu5Ac(a2-3)Gal(b1-3)GalNAc(b1-4)Gal(b1-4)Glc
# How it was run: as §1
# [22] = molecular target: Neu5Ac(a2-3)Gal(b1-3)GalNAc(b1-4)[Neu5Ac(a2-3)]Gal(b1-4)Glc
# How it was run: as §1
# [23] = molecular target: Neu5Ac(a2-3)Gal(b1-3)GalNAc(b1-4)[Neu5Ac(a2-8)Neu5Ac(a2-3)]Gal(b1-4)Glc
# How it was run: as §1
# [24] = molecular target: Neu5Ac(a2-3)Gal(b1-3)GalNAc6S
# How it was run: as §1
# [25] = molecular target: Neu5Ac(a2-3)Gal(b1-3)GlcNAc
# How it was run: as §1
binder,measurement,setting,value
Clec49 (Caenorhabditis elegans) (protein) MTRLTLLLFGLLGAATAQTCNTGGIYNEQFNRCYQYFTAPAQFSFAEQQCNLLGGHLASVQNGQENALLQSNAANSFKRSNYSDYWIGATDLETSGTWKWTDPSVTFDYSNWQLGEPQSGSDCAIQDKGDGTWSAIGCTSYRPYVCVTPVIMTATCPPITTPIPTTCPTPAPCPIKQCVPSCDQGWTYFSPTDFCYRVYHGEKFNDAEASCVLLGGHLASIHSLTENTFVNNIASCGIKEGKYEHLAWIGMRKVGQDWVWTDGTPSDYFNWAPKQPDNPKKELCVQTAPDLSHDKWYENWNNLECNEVMRAYICKKASIHN,glycan array binding signal (z-score),[1],-0.849
same,glycan array binding signal (z-score),[2],-0.524
same,glycan array binding signal (z-score),[3],-0.259
same,glycan array binding signal (z-score),GlcNAc(b1-6)GalNAc,-0.472
same,glycan array binding signal (z-score),[4],-0.446
same,glycan array binding signal (z-score),Kdn(a2-3)Gal(b1-3)GalNAc,-0.04
same,glycan array binding signal (z-score),Kdn(a2-3)Gal(b1-3)GlcNAc,-0.418
same,glycan array binding signal (z-score),Kdn(a2-3)Gal(b1-4)Glc,-0.4
same,glycan array binding signal (z-score),Kdn(a2-3)Gal(b1-4)GlcNAc,-0.063
same,glycan array binding signal (z-score),[5],-0.099
same,glycan array binding signal (z-score),Kdn(a2-6)Gal(b1-4)GlcNAc,-0.226
same,glycan array binding signal (z-score),[6],-0.373
same,glycan array binding signal (z-score),[7],-0.455
same,glycan array binding signal (z-score),Man(a1-2)Man(a1-3)Man,0.656
same,glycan array binding signal (z-score),[8],-0.266
same,glycan array binding signal (z-score),[9],-0.181
same,glycan array binding signal (z-score),[10],-0.538
same,glycan array binding signal (z-score),[11],-0.521
same,glycan array binding signal (z-score),[12],-0.477
same,glycan array binding signal (z-score),[13],-0.395
same,glycan array binding signal (z-score),Man(a1-3)[Man(a1-6)]Man,-0.553
same,glycan array binding signal (z-score),[14],-0.268
same,glycan array binding signal (z-score),[15],-0.179
same,glycan array binding signal (z-score),[16],-0.235
same,glycan array binding signal (z-score),[17],-0.617
same,glycan array binding signal (z-score),[18],0.126
same,glycan array binding signal (z-score),Man(a1-6)Man,-0.35
same,glycan array binding signal (z-score),Man(b1-4)GlcNAc,-0.478
same,glycan array binding signal (z-score),MurNAc(b1-4)GlcNAc,-0.504
same,glycan array binding signal (z-score),Neu5Ac(a2-3)Gal,-0.853
same,glycan array binding signal (z-score),[19],-0.4
same,glycan array binding signal (z-score),[20],-0.381
same,glycan array binding signal (z-score),[21],-1.05
same,glycan array binding signal (z-score),[22],1.48
same,glycan array binding signal (z-score),[23],-0.511
same,glycan array binding signal (z-score),[24],-0.492
same,glycan array binding signal (z-score),[25],-0.393
